Some of the results follow.

For this experiment, the target named is T1, MBP-FoxP1dN (Mus musculus, UniProt P58462 326-579).
T1 sequence: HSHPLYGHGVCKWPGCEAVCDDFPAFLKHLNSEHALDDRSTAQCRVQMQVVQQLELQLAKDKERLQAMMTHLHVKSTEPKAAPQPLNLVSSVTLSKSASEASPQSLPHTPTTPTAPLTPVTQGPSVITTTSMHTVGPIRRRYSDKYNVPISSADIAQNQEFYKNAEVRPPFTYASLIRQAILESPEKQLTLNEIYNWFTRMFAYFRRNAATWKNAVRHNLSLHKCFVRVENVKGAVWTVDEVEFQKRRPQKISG
Nature of the experiment: PD-seq (MBP pull-down with sequencing); 20 mM Tris-HCl pH 7.5, 100 mM NaCl, 1.5 mM MgCl2, 0.4 uM protein, 0.1 uM dsDNA library, 30 min, room temperature, amylose pull-down; high values mean tight binding. The following applies: protein: recombinant; tags: His6-MBP; chain copies: 2; dsDNA, one strand shown. In short, it runs like this:
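E. coli-expressed mouse FoxP3 or FoxP1 fragment, N-terminus removed and tagged with His6-MBP, was used at 0.4 µM against 0.1 µM of a Klenow-filled degenerate double-stranded DNA library. After 30 min at room temperature in Tris pH 7.5 buffer with NaCl and MgCl2, complexes were pulled down on amylose resin and washed three times. Binding is pull-down over input reads-per-million enrichment from pooled replicates of the proteinase K-released, PCR-barcoded, Illumina-sequenced DNA.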
Take “GATGATTGTTCTCCCAGCTGATGAATTTGGGTAGTCGAGTAAACAAATTTTCCTAATCTTTCTGTTCAAGCGCCATCTAC”: the binding signal was 0.934 RPM ratio (pull-down/input).

Take “GATGATTGTTCTCCCAGCTGATGAATTGTTCGTCTCGAGTAAACAAATTTTCCTAATCTTTCTGTTCAAGCGCCATCTAC”: the binding signal was 1.01 RPM ratio (pull-down/input).

For “GATGATTGTTCTCCCAGCTGATGAATTGAACAGCTCGAGTAAACAAATTTTCCTAATCTTTCTGTTCAAGCGCCATCTAC”, the binding signal was 0.782 RPM ratio (pull-down/input).

Regarding “GATGATTGTTCTCCCAGCTGATGAATTCCTGACGTCGAGTAAACAAATTTTCCTAATCTTTCTGTTCAAGCGCCATCTAC”, the binding signal is 0.839 RPM ratio (pull-down/input).

Turning to “GATGATTGTTCTCCCAGCTGATGAATTATTGAGGTCGAGTAAACAAATTTTCCTAATCTTTCTGTTCAAGCGCCATCTAC”, the binding signal is 0.946 RPM ratio (pull-down/input).

Regarding “GATGATTGTTCTCCCAGCTGATGAATTGCGCCGATCGAGTAAACAAATTTTCCTAATCTTTCTGTTCAAGCGCCATCTAC”, the binding signal is 1.03 RPM ratio (pull-down/input).

With “GATGATTGTTCTCCCAGCTGATGAATTGTCGCCTTCGAGTAAACAAATTTTCCTAATCTTTCTGTTCAAGCGCCATCTAC”, the binding signal is 0.995 RPM ratio (pull-down/input).

In the case of “GATGATTGTTCTCCCAGCTGATGAATTATTCGACTCGAGTAAACAAATTTTCCTAATCTTTCTGTTCAAGCGCCATCTAC”, the binding signal is 1.04 RPM ratio (pull-down/input).

With “GATGATTGTTCTCCCAGCTGATGAATTCAAGCGTTCGAGTAAACAAATTTTCCTAATCTTTCTGTTCAAGCGCCATCTAC”, the binding signal is 0.967 RPM ratio (pull-down/input).

“GATGATTGTTCTCCCAGCTGATGAATTTGAAACCTCGAGTAAACAAATTTTCCTAATCTTTCTGTTCAAGCGCCATCTAC”: the binding signal was 0.838 RPM ratio (pull-down/input).

As to “GATGATTGTTCTCCCAGCTGATGAATTTAATATATCGAGTAAACAAATTTTCCTAATCTTTCTGTTCAAGCGCCATCTAC”, the binding signal was 0.958 RPM ratio (pull-down/input).

With “GATGATTGTTCTCCCAGCTGATGAATTCAGCCATTCGAGTAAACAAATTTTCCTAATCTTTCTGTTCAAGCGCCATCTAC”, the binding signal is 0.828 RPM ratio (pull-down/input).

For the sequence “GATGATTGTTCTCCCAGCTGATGAATTCAGTAGTTCGAGTAAACAAATTTTCCTAATCTTTCTGTTCAAGCGCCATCTAC”, the binding signal is 0.824 RPM ratio (pull-down/input).

Consider “GATGATTGTTCTCCCAGCTGATGAATTGTACATTTCGAGTAAACAAATTTTCCTAATCTTTCTGTTCAAGCGCCATCTAC”, for which the binding signal was 1.05 RPM ratio (pull-down/input).

As for “GATGATTGTTCTCCCAGCTGATGAATTGCGAAGCTCGAGTAAACAAATTTTCCTAATCTTTCTGTTCAAGCGCCATCTAC”, the binding signal was 1.01 RPM ratio (pull-down/input).

With “GATGATTGTTCTCCCAGCTGATGAATTGTCAGTATCGAGTAAACAAATTTTCCTAATCTTTCTGTTCAAGCGCCATCTAC”, the binding signal was 1.01 RPM ratio (pull-down/input).

As for “GATGATTGTTCTCCCAGCTGATGAATTTCTGATCTCGAGTAAACAAATTTTCCTAATCTTTCTGTTCAAGCGCCATCTAC”, the binding signal is 0.84 RPM ratio (pull-down/input).

In the case of “GATGATTGTTCTCCCAGCTGATGAATTGTGAGAATCGAGTAAACAAATTTTCCTAATCTTTCTGTTCAAGCGCCATCTAC”, the binding signal was 1.17 RPM ratio (pull-down/input).

“GATGATTGTTCTCCCAGCTGATGAATTCCAGGTTTCGAGTAAACAAATTTTCCTAATCTTTCTGTTCAAGCGCCATCTAC”: the binding signal was 0.814 RPM ratio (pull-down/input).

For “GATGATTGTTCTCCCAGCTGATGAATTGGGCACTTCGAGTAAACAAATTTTCCTAATCTTTCTGTTCAAGCGCCATCTAC”, the binding signal is 0.918 RPM ratio (pull-down/input).

For “GATGATTGTTCTCCCAGCTGATGAATTTCTCTTTTCGAGTAAACAAATTTTCCTAATCTTTCTGTTCAAGCGCCATCTAC”, the binding signal is 1.13 RPM ratio (pull-down/input).

As for “GATGATTGTTCTCCCAGCTGATGAATTATACGTGTCGAGTAAACAAATTTTCCTAATCTTTCTGTTCAAGCGCCATCTAC”, the binding signal is 1.05 RPM ratio (pull-down/input).

In the case of “GATGATTGTTCTCCCAGCTGATGAATTTGCGTAGTCGAGTAAACAAATTTTCCTAATCTTTCTGTTCAAGCGCCATCTAC”, the binding signal is 1.01 RPM ratio (pull-down/input).

For the sequence “GATGATTGTTCTCCCAGCTGATGAATTCGGAATATCGAGTAAACAAATTTTCCTAATCTTTCTGTTCAAGCGCCATCTAC”, the binding signal was 0.92 RPM ratio (pull-down/input).

For the sequence “GATGATTGTTCTCCCAGCTGATGAATTTAGCGATTCGAGTAAACAAATTTTCCTAATCTTTCTGTTCAAGCGCCATCTAC”, the binding signal is 0.947 RPM ratio (pull-down/input).

Regarding “GATGATTGTTCTCCCAGCTGATGAATTAAAAGACTCGAGTAAACAAATTTTCCTAATCTTTCTGTTCAAGCGCCATCTAC”, the binding signal was 0.784 RPM ratio (pull-down/input).

For “GATGATTGTTCTCCCAGCTGATGAATTCCTCTAGTCGAGTAAACAAATTTTCCTAATCTTTCTGTTCAAGCGCCATCTAC”, the binding signal was 0.791 RPM ratio (pull-down/input).

Consider “GATGATTGTTCTCCCAGCTGATGAATTTGTTTCCTCGAGTAAACAAATTTTCCTAATCTTTCTGTTCAAGCGCCATCTAC”, for which the binding signal is 1.49 RPM ratio (pull-down/input).

As to “GATGATTGTTCTCCCAGCTGATGAATTGACAAAGTCGAGTAAACAAATTTTCCTAATCTTTCTGTTCAAGCGCCATCTAC”, the binding signal was 1.38 RPM ratio (pull-down/input).

On to “GATGATTGTTCTCCCAGCTGATGAATTGTAGGTCTCGAGTAAACAAATTTTCCTAATCTTTCTGTTCAAGCGCCATCTAC”, for which the binding signal was 0.944 RPM ratio (pull-down/input).

As to “GATGATTGTTCTCCCAGCTGATGAATTTTCTAGCTCGAGTAAACAAATTTTCCTAATCTTTCTGTTCAAGCGCCATCTAC”, the binding signal was 0.887 RPM ratio (pull-down/input).

Source of the values: article PMC12820563, “FoxP3 forms a head-to-head dimer in vivo and stabilizes its multimerization on adjacent microsatellites”.
